The other results are listed elsewhere or left out.
Tested on: HSkMC (human skeletal muscle cells)
Experiment: cytotoxicity call (relative viability < 0.9)
Conditions: 10 µM

SMILES	cytotoxicity call
CN1CCN(C(=O)C[C@@H]2C[C@H]3c4cc(NC(=O)c5ccc6c(c5)OCO6)ccc4O[C@H]3[C@@H](CO)O2)CC1	inactive
COc1ccc(NC(=O)N(C)C[C@@H]2Oc3ccc(NS(=O)(=O)c4cn(C)cn4)cc3C(=O)N([C@H](C)CO)C[C@H]2C)cc1	inactive
O=C(C[C@H]1CC[C@@H](NC(=O)c2cccnc2)[C@H](CO)O1)NCCN1CCCCC1	inactive
COc1ccc(NC(=O)N(C)C[C@H]2Oc3ccc(NS(=O)(=O)c4cn(C)cn4)cc3CC(=O)N([C@H](C)CO)C[C@H]2C)cc1	inactive
C[C@@H]1CCCCO[C@@H](CN(C)C(=O)Cc2ccccc2)[C@H](C)CN([C@H](C)CO)C(=O)c2cc(NC(=O)Nc3ccccc3)ccc2O1	inactive
Cc1noc(C)c1NC(=O)N(C)C[C@@H]1OCCCC[C@@H](C)Oc2ccc(NC(=O)c3ccccc3)cc2C(=O)N([C@@H](C)CO)C[C@H]1C	inactive
Cc1ccc(S(=O)(=O)N(C)C[C@H]2OCCCC[C@H](C)Oc3ccc(NC(=O)Nc4ccc(C(F)(F)F)cc4)cc3C(=O)N([C@H](C)CO)C[C@@H]2C)cc1	inactive
O=C(C[C@H]1C=C[C@H](NC(=O)C2CCC2)[C@H](CO)O1)NCCCN1CCOCC1	inactive
C[C@@H]1CCCCO[C@@H](CN(C)C(=O)NC2CCCCC2)[C@H](C)CN([C@H](C)CO)C(=O)c2cc(NC(=O)Nc3ccc(F)cc3)ccc2O1	inactive
COc1ccc(-c2cnc3c(c2)C(=O)N([C@H](C)CO)C[C@H](C)[C@@H](CN(C)C(=O)Cc2ccncc2)O3)cc1	inactive
Cc1cc(C(C)(C)C)c(O)c(C)c1CC1=NCCN1.Cl	inactive
C[C@@H]1CN([C@H](C)CO)C(=O)c2cc(NC(=O)c3ccccc3)ccc2O[C@@H](C)CCCCO[C@H]1CN(C)C(=O)Nc1ccc(F)cc1	inactive
CC(C)NC(=O)N[C@@H]1C=C[C@H](CC(=O)O)O[C@H]1CO	inactive

Tested on: HepG2
Experiment: cytotoxicity call (relative viability < 0.9)
Conditions: 10 µM

SMILES	cytotoxicity call
C[C@@H]1CCCCO[C@H](CN(C)C(=O)Cc2ccccc2)[C@H](C)CN([C@H](C)CO)C(=O)c2cc(NS(=O)(=O)c3cccs3)ccc2O1	inactive
CO[C@@H]1CN(C)C(=O)c2cc(NS(=O)(=O)CC(F)(F)F)ccc2OC[C@@H](C)N(C(=O)c2ccc3c(c2)OCO3)C[C@@H]1C	inactive
COCC(=O)N1C[C@H](C)[C@H](OC)CN(C)C(=O)c2cc(NC(=O)Nc3ccccc3)ccc2OC[C@@H]1C	inactive
O=C(C[C@@H]1CC[C@@H]2[C@H](COC[C@@H](O)CN2Cc2cccc(C(F)(F)F)c2)O1)NCCc1ccncc1	inactive
C[C@@H]1CN([C@H](C)CO)C(=O)c2cccc(NC(=O)Nc3ccc4c(c3)OCO4)c2O[C@@H]1CN(C)S(C)(=O)=O	inactive
C[C@@H]1CN([C@H](C)CO)C(=O)c2cc(NC(=O)Nc3cccc4ccccc34)ccc2O[C@H]1CN(C)Cc1ccc(-c2ccccc2)cc1	active
Cc1noc(C)c1NC(=O)Nc1ccc2c(c1)C(=O)N([C@H](C)CO)C[C@H](C)[C@H](CN(C)Cc1ccncc1)OCCCC[C@H](C)O2	inactive
COc1ccc2c3c(n(c2c1)C)[C@@H](CO)N(C[C@]13CN(C1)C(=O)C1CC1)C(=O)CN1CCOCC1	inactive
CC=Cc1ccc2n(c1=O)C[C@H]1[C@H](CO)[C@@H](C(=O)NCC3CC3)[C@@H]2N1S(=O)(=O)c1cn(C)cn1	inactive
C[C@@H]1CN([C@H](C)CO)S(=O)(=O)c2ccc(-c3cncnc3)cc2O[C@H]1CN(C)C(=O)C1CCCCC1	inactive
C[C@@H]1CCCCO[C@H](CN(C)C(=O)C2CCCCC2)[C@H](C)CN([C@H](C)CO)C(=O)c2cc(NC(=O)Nc3ccccc3)ccc2O1	inactive
Cc1ccc(S(=O)(=O)N2C[C@@H](O)COC[C@H]3O[C@@H](CC(=O)NCCCN(C)C)CC[C@@H]32)cc1	inactive
C[C@@H]1CCCCO[C@@H](CN(C)C(=O)Nc2cccc3ccccc23)[C@H](C)CN([C@@H](C)CO)C(=O)c2cc(NS(=O)(=O)c3cccs3)ccc2O1	inactive
O=C(O)CNC(=O)CNC(=O)Cn1nc(-c2ccccc2)ccc1=O	inactive
Cc1noc(C)c1NC(=O)N(C)C[C@@H]1Oc2c(NS(C)(=O)=O)cccc2C(=O)N([C@H](C)CO)C[C@@H]1C	inactive
C[C@H](CO)N1C[C@H](C)[C@@H](CN(C)C(=O)CN2CCOCC2)Oc2cc(/C=C/c3ccccc3)ccc2S1(=O)=O	inactive
COc1ccc(NC(=O)N2CCCCN3[C@H](CN(C)C(C)=O)[C@H](c4ccc(C#Cc5ccccc5)cc4)[C@@H]3C2)cc1	active
Cc1noc(C)c1NC(=O)Nc1ccc2c(c1)CC(=O)N([C@@H](C)CO)C[C@H](C)[C@H](CN(C)S(=O)(=O)c1cccs1)O2	inactive
C[C@@H]1CN([C@@H](C)CO)S(=O)(=O)c2ccc(-c3ccccc3F)cc2O[C@H]1CN(C)S(C)(=O)=O	inactive
COc1cccc(S(=O)(=O)N2C[C@H](O)COC[C@H]3O[C@@H](CC(=O)N4CCOCC4)CC[C@@H]32)c1	inactive

SMILES	cytotoxicity call
CNC(=O)CC1CCNCC1	inactive
Cc1noc(C)c1S(=O)(=O)Nc1ccc2c(c1)C(=O)N([C@@H](C)CO)C[C@H](C)[C@@H](CN(C)Cc1ccccc1)OCCCC[C@@H](C)O2	inactive
CCCCC/C=C/CCC(=O)N[C@H]1[C@H](Oc2c3cc4cc2Oc2ccc(cc2Cl)[C@@H](O[C@@H]2O[C@H](CO)[C@@H](O)[C@H](O)[C@H]2NC(C)=O)[C@@H]2NC(=O)[C@H](NC(=O)[C@@H]4NC(=O)[C@H]4NC(=O)[C@@H](Cc5ccc(c(Cl)c5)O3)NC(=O)[C@H](N)c3ccc(O)c(c3)Oc3cc(O)cc4c3)c3ccc(O)c(c3)-c3c(O[C@H]4O[C@H](CO)[C@@H](O)[C@H](O)[C@@H]4O)cc(O)cc3[C@@H](C(=O)O)NC2=O)O[C@H](CO)[C@@H](O)[C@@H]1O	inactive
COc1ccc(S(=O)(=O)N2C[C@H](O)COC[C@H]3O[C@H](CC(=O)N[C@H]4CCN(Cc5ccccc5)C4)CC[C@@H]32)cc1	inactive
C[C@H]1CN([C@@H](C)CO)C(=O)c2cccc(NC(=O)Nc3ccc(F)cc3)c2O[C@@H]1CN(C)Cc1ccc(C(=O)Nc2ccccc2N)cc1	inactive
C[C@H](CO)N1C[C@H](C)[C@H](CN(C)Cc2ccc(Oc3ccccc3)cc2)Oc2cc(Br)ccc2S1(=O)=O	inactive
CN1CCN(C(=O)C[C@@H]2C[C@H]3c4cc(NC(=O)c5ccc6c(c5)OCO6)ccc4O[C@H]3[C@@H](CO)O2)CC1	inactive
COc1ccc(NC(=O)N(C)C[C@@H]2Oc3ccc(NS(=O)(=O)c4cn(C)cn4)cc3C(=O)N([C@H](C)CO)C[C@H]2C)cc1	inactive
O=C(C[C@H]1CC[C@@H](NC(=O)c2cccnc2)[C@H](CO)O1)NCCN1CCCCC1	inactive
COc1ccc(NC(=O)N(C)C[C@H]2Oc3ccc(NS(=O)(=O)c4cn(C)cn4)cc3CC(=O)N([C@H](C)CO)C[C@H]2C)cc1	inactive
C[C@@H]1CCCCO[C@@H](CN(C)C(=O)Cc2ccccc2)[C@H](C)CN([C@H](C)CO)C(=O)c2cc(NC(=O)Nc3ccccc3)ccc2O1	inactive
Cc1noc(C)c1NC(=O)N(C)C[C@@H]1OCCCC[C@@H](C)Oc2ccc(NC(=O)c3ccccc3)cc2C(=O)N([C@@H](C)CO)C[C@H]1C	inactive
Cc1ccc(S(=O)(=O)N(C)C[C@H]2OCCCC[C@H](C)Oc3ccc(NC(=O)Nc4ccc(C(F)(F)F)cc4)cc3C(=O)N([C@H](C)CO)C[C@@H]2C)cc1	inactive
O=C(C[C@H]1C=C[C@H](NC(=O)C2CCC2)[C@H](CO)O1)NCCCN1CCOCC1	inactive
C[C@@H]1CCCCO[C@@H](CN(C)C(=O)NC2CCCCC2)[C@H](C)CN([C@H](C)CO)C(=O)c2cc(NC(=O)Nc3ccc(F)cc3)ccc2O1	inactive
COc1ccc(-c2cnc3c(c2)C(=O)N([C@H](C)CO)C[C@H](C)[C@@H](CN(C)C(=O)Cc2ccncc2)O3)cc1	inactive
Cc1cc(C(C)(C)C)c(O)c(C)c1CC1=NCCN1.Cl	inactive
C[C@@H]1CN([C@H](C)CO)C(=O)c2cc(NC(=O)c3ccccc3)ccc2O[C@@H](C)CCCCO[C@H]1CN(C)C(=O)Nc1ccc(F)cc1	inactive
CC(C)NC(=O)N[C@@H]1C=C[C@H](CC(=O)O)O[C@H]1CO	inactive
